Results: the supplement of paper PMC10338343
± gives the standard deviation. The list shows a part of the results, in another mix than the full data.

Test system: MIWI (PIWIL1) piRISC loaded with L1MC piRNA (30 nt)
Test: pre-steady-state target cleavage rate (min^-1); MIWI and MILI are mouse PIWI proteins and EfPiwi is from a freshwater sponge; tags in brackets are library labels; higher = faster piRNA-guided slicing of the target
Details: guide: L1MC piRNA 5'p-UAACUAAAUACUAUGCAAGCUGUAGGUCCU
Method in brief: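 In this Cleave-'n-Seq assay, uncleaved targets were sequenced and normalised to depth and to weakly complementary targets. They came from a transcribed, DNA-blocked target RNA library […] mixed with 1 nM active affinity-purified piRISC carrying one synthetic guide, with or without 500 nM GTSF1 partner protein, in HEPES–potassium acetate buffer at 33 °C for 0–8 or 0–960 min. After three trials were pooled and k3 was capped at 0.0001 min^-1, the pre-steady-state cleavage rate was obtained from a burst-and-steady-state fit.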

[1] = auxiliary factor: 500 nM mouse GTSF1
[2] = auxiliary factor: none (no GTSF1)
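Also: 1 nM active piRISC with 0.1 nM target library at 33 °C single turnover.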

| Sequence | pre-steady-state target cleavage rate [1] | pre-steady-state target cleavage rate [2] |
| --- | --- | --- |
| AGGACCUACAGCUUGCAUAGUUUUUAGAAA | 0.251 ± 0.035 | 0.00908 ± 0.0034 |
| UCCUCCAACAGCUUGCAUAGUAUUUACAAA | 0.306 ± 0.036 | 0.00369 ± 0.0032 |
| UCCUGGAACAGCUUGCAAAGUAUUUAGUUA | 1.09 ± 0.039 | 0.044 ± 0.011 |
| UCCUGGAACAGCUUGCAUAGUAUUCAGUUA | 0.422 ± 0.044 | 0.0265 ± 0.0073 |
| UGGACCUACAGCUUGCAUACUAUUUAGAUA | 0.0454 ± 0.0072 | 0.00776 ± 0.0025 |
| UCCUGGAACAGCUUGCAUAGUAUUCUAGUUA | 0.285 ± 0.041 | 0.0119 ± 0.0031 |
| UCCUGGAACACCUUGCAUAGUAUUUAGUUA | 0.596 ± 0.053 | 0.0159 ± 0.0034 |
| AGGAGCUACAGCUUGCAUUGUAUUUAGUUA | 0.9 ± 0.045 | 0.0371 ± 0.0084 |
| UCCUCCUACAGCUUGCAAAGAAUUUAGUUA | 0.223 ± 0.029 | 0.00777 ± 0.0035 |
| UCCUGGAUCAGCUUGCAUACUAUUUUGUUA | 0.101 ± 0.013 | 0.0125 ± 0.0033 |
| UCCUGGAUGAGCUUGCAAAGUAUUUUGUUA | 0.267 ± 0.029 | 0.0136 ± 0.0037 |
